This note sets out measurements from publication PMC6593343.

The chains behind the UniProt entries cited, without tags or fusion partners.
UniProt P01100: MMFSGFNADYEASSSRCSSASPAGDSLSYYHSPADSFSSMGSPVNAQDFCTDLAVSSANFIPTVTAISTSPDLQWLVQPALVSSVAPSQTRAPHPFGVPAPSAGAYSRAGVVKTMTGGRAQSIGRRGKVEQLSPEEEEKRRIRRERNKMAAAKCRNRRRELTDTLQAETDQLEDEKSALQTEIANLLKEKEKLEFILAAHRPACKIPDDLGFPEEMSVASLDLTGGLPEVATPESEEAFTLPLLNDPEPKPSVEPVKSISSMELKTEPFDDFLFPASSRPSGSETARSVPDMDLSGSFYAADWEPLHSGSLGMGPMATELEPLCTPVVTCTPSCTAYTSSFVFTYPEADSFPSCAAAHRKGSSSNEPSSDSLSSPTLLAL

Holding throughout (assay): FRET or BRET; sensitized emission FRET in co-transfected MDA-MB231 cells; donor TQ2 fusions, acceptor SYFP2 fusions; cells arrested 48 h, cycloheximide 50 ug/mL 1 h before FBS, fixed 15 min later with 4% paraformaldehyde; confocal microscopy
Assay [1] addresses T1, CDS1 (CDP-diacylglycerol synthase 1) fused to the acceptor FRET-pair (pSYFP-CDS1) (UniProt Q92903).
T1 sequence: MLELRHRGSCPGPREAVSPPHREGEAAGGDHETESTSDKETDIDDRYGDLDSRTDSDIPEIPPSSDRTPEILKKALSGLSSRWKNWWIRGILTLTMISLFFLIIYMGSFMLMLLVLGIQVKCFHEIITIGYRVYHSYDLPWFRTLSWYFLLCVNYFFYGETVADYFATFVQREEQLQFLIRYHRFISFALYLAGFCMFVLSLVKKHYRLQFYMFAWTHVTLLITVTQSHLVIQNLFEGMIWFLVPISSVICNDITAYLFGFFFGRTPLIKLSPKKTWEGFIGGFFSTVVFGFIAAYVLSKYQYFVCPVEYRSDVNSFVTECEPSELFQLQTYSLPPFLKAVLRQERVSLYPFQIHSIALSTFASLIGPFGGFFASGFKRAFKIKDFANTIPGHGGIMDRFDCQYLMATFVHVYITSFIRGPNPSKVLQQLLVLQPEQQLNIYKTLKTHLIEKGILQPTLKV

In assay [2] the target is T2, PIS (phosphatidylinositol synthase) fused to the acceptor FRET-pair (pSYFP-PIS) (UniProt O14735).
T2 sequence: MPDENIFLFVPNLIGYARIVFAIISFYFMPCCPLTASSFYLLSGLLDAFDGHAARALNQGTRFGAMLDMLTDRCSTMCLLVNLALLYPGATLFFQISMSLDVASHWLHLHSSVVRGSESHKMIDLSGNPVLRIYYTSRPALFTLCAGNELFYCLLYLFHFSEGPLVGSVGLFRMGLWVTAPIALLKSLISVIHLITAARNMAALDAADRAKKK

Substrate in assay [3]: T3, PIS (phosphatidylinositol synthase) fused to the acceptor FRET-pair (pSYFP-PIS) (UniProt O14735)
T3 sequence: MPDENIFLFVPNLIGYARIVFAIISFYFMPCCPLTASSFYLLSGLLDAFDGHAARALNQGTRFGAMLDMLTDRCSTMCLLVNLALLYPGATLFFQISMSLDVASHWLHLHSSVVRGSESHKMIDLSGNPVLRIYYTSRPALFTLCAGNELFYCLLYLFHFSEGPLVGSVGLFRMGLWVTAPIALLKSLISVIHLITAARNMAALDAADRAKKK
The source holds these as a separate data set.

Where two headings read alike, the source gives them in different places. These are yes or no findings as the source states them, for the method shown. Binding seen in cells or lysates may run through a third protein. Some entries that bind do so weakly or less than the wild type. Tags and fused reporters may be left off the sequences shown.

As for “c-Fos fused to the donor FRET-pair (pTQ2-c-Fos) (from UniProt P01100 1-380)”, the binding entry is “binds” in assay [1] and “no binding” in assay [2].

B1: Fra-1-BC: basic domain plus the C-terminus of Fra-1 (aa 108-271) fused to pTQ2 (domain or fragment, UniProt P15407 108-271)
chain: RRVRRERNKLAAAKCRNRRKELTDFLQAETDKLEDEKSGLQREIEELQKQKERLELVLEAHRPICKIPEGAKEGDTGSTSGTSSPPAPCRPVPCISLSPGPVLEPEALHTPTLMTTPSLTPFTPSLVFTYPSTPEPCASAHRKSSSSSGDPSSDPLGSPTLLAL
As to B1, the binding entry in assay [1] is on record as “no binding”.

B2: full length Fra-1 fused to the donor FRET-pair (pTQ2-Fra-1) (protein, UniProt P15407 1-271)
chain: MFRDFGEPGPSSGNGGGYGGPAQPPAAAQAAQQKFHLVPSINTMSGSQELQWMVQPHFLGPSSYPRPLTYPQYSPPQPRPGVIRALGPPPGVRRRPCEQISPEEEERRRVRRERNKLAAAKCRNRRKELTDFLQAETDKLEDEKSGLQREIEELQKQKERLELVLEAHRPICKIPEGAKEGDTGSTSGTSSPPAPCRPVPCISLSPGPVLEPEALHTPTLMTTPSLTPFTPSLVFTYPSTPEPCASAHRKSSSSSGDPSSDPLGSPTLLAL
For B2, the binding entry is “binds” in assay [1] and “no binding” in assay [3].

B3: Fra-1-NB: N-terminus plus basic domain of Fra-1 (aa 1-127) fused to pTQ2 (domain or fragment, UniProt P15407 1-127)
chain: MFRDFGEPGPSSGNGGGYGGPAQPPAAAQAAQQKFHLVPSINTMSGSQELQWMVQPHFLGPSSYPRPLTYPQYSPPQPRPGVIRALGPPPGVRRRPCEQISPEEEERRRVRRERNKLAAAKCRNRRK
On to B3, for which the binding result in assay [1] is listed as “binds”.

B4: Fra-1-NA: N-terminus of Fra-1 (aa 1-107) fused to pTQ2 (domain or fragment, UniProt P15407 1-107)
chain: MFRDFGEPGPSSGNGGGYGGPAQPPAAAQAAQQKFHLVPSINTMSGSQELQWMVQPHFLGPSSYPRPLTYPQYSPPQPRPGVIRALGPPPGVRRRPCEQISPEEEER
As to B4, the binding entry in assay [1] was “binds”.
